Data taken from paper PMC6078440, “Structural and functional analysis of Dickkopf 4 (Dkk4): New insights into Dkk evolution and regulation of Wnt signaling by Dkk and Kremen proteins” (The Journal of Biological Chemistry, 2018).
No constants are given. Whether binding was seen depends on the method and setting. For some of these results: Binding seen in cells or lysates may run through a third protein. Some results given as binding are weak or reduced against the parent protein; the word gives no strength. Sequences can lack the tags named with a protein. Blank lines part the entries; values can stand above or below the binder they belong to.

Protein sequences, listed by entry. Tags and fused reporters are not part of them. Residues count along the entry.
UniProt O75581, residues 20-1613: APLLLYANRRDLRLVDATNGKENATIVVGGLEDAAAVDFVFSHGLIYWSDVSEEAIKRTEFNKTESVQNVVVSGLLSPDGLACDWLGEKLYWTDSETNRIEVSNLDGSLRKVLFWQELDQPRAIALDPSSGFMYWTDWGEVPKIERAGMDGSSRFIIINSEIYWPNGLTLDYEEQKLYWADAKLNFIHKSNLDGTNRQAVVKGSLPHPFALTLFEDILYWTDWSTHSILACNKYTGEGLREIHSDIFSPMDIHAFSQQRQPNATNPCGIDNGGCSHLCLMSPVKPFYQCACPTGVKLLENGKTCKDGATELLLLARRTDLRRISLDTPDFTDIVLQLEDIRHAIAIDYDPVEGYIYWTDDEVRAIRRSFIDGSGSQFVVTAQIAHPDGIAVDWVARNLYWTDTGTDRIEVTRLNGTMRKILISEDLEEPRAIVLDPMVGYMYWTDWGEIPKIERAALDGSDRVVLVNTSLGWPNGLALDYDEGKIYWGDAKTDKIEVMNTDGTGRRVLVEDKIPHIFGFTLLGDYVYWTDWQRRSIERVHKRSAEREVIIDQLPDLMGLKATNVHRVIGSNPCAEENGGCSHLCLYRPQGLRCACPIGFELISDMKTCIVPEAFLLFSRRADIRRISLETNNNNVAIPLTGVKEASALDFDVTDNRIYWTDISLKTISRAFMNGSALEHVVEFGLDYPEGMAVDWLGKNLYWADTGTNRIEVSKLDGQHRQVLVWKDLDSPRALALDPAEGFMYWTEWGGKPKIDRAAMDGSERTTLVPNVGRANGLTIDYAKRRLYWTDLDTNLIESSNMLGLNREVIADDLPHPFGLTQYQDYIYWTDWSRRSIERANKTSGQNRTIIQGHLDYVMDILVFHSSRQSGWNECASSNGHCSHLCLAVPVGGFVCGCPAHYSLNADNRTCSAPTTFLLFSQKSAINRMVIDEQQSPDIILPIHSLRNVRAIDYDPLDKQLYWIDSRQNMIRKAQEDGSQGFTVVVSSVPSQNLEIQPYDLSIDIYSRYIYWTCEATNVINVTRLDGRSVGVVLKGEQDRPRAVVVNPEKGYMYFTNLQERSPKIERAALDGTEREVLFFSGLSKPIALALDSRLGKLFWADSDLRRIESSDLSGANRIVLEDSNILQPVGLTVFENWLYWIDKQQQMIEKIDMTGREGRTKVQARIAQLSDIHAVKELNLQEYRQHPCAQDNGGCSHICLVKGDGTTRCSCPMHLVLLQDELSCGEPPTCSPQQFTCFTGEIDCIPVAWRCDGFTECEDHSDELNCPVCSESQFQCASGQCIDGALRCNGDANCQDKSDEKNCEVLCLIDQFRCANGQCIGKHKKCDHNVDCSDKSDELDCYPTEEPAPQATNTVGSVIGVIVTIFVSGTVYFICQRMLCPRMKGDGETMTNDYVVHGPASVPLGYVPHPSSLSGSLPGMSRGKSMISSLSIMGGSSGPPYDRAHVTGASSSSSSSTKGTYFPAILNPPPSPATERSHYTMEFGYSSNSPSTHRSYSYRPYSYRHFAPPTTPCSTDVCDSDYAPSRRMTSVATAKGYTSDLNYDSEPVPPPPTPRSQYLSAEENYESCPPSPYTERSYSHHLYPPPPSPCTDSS

Columns and labels:
[1] = target: T1, Kremen1 extracellular domain Fc fusion protein (human) (UniProt Q96MU8); experiment: condition: 100 μM (highest Dkk4N concentration given in the methods); BLI; Krm1 ECD-Fc loaded from supernatants on AHC biosensors; Dkk2FL or Dkk4FL 1-1000 nM, Dkk4N 0.1-100 μM; 25 mM Na2HPO4, 100 mM NaCl, 0.05% Triton X-100, pH 6.5; steady-state fit to a one-site model; only the binder purified
T1 sequence: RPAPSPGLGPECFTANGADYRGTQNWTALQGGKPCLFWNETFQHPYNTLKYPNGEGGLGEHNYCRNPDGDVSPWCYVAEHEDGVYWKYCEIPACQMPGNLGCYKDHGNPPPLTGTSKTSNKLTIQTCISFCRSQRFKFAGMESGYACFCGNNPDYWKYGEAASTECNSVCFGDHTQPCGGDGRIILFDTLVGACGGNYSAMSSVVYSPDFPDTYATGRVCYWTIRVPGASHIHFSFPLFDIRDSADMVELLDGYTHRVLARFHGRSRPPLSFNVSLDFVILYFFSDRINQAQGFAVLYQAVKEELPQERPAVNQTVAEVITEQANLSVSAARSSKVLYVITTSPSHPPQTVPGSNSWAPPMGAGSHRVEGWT

[2] = target: T1, Kremen1 extracellular domain Fc fusion protein (human); experiment: BLI; Krm1 ECD-Fc loaded from supernatants on AHC biosensors; Dkk2FL or Dkk4FL up to 1 μM; 25 mM Na2HPO4, 100 mM NaCl, 0.05% Triton X-100, pH 7.5; only the binder purified
[3] = target: T1, Kremen1 extracellular domain Fc fusion protein (human); experiment: pull-down; Krm ECD-Fc proteins captured from cell culture medium on protein A-agarose beads; Dkk2FL or Dkk4FL added at 200 nM, 1 h at 4 °C; anti-His Western blot; only the binder purified
[4] = target: T2, Kremen2 extracellular domain Fc fusion protein (human) (UniProt Q8NCW0); experiment: as above
T2 sequence: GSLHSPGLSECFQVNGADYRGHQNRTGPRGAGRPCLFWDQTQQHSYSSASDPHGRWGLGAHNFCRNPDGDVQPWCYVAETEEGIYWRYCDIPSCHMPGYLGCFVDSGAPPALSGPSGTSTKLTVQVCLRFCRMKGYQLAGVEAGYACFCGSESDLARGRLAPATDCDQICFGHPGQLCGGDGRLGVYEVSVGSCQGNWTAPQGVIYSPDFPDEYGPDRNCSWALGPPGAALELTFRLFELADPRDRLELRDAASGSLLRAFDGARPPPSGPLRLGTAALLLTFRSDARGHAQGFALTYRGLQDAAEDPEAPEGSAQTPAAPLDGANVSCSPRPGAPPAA

[5] = target: full-length LRP6 expressed on transfected cells (UniProt O75581); experiment: flow cytometry on cells; cells transiently transfected with full-length LRP6 or empty vector; His6-tagged Dkk proteins 11-110 nM, 2 h at 4 °C in PBS with 10% fetal calf serum, 1% BSA, 0.1% NaN3; detected with anti-His-PE; only the binder purified
[6] = target: T3, isolated Kremen1 extracellular domain, Fc tag removed (human) (UniProt Q96MU8); experiment: NMR titration; 15N/1H TROSY of 15N/13C/2H-labelled Dkk4FL without and with a 10% molar excess of the unlabelled partner; minimal shift mapping; 25 mM Na2HPO4, 100 mM NaCl, pH 6.5, 35 °C; both purified
T3 sequence: T1 sequence

binding [1]: no binding
B1: N-terminal region of Dkk4 including CRD1, residues 19-97 (domain or fragment)
chain: LVLDFNNIRSSADLHGARKGSQCLSDTDCNTRKFCLQPRDEKPFCATCRGLRRRCQRDAMCCPGTLCVNDVCTTMEDAT

binding [3]: binds | binding [4]: binds | binding [5]: binds
B2: full-length mature Dkk2 (Dickkopf 2), residues 38-259, His-tagged (natural protein, human, UniProt Q9UBU2 38-259, looked up)
chain: IKSSLGGETPGQAANRSAGMYQGLAFGGSKKGKNLGQAYPCSSDKECEVGRYCHSPHQGSSACMVCRRKKKRCHRDGMCCPSTRCNNGICIPVTESILTPHIPALDGTRHRDRNHGHYSNHDLGWQNLGRPHTKMSHIKGHEGDPCLRSSDCIEGFCCARHFWTKICKPVLHQGEVCTKQRKKGSHGLEIFQRCDCAKGLSCKVWKDATYSSKARLHVCQKI
notes: also called Dkk2FL
binding [2]: no binding (condition: at pH 7.5; up to 1 μM)

binding [6]: binds | binding [3]: binds | binding [4]: binds | binding [5]: binds
B3: full-length mature Dkk4 (Dickkopf 4), residues 19-224, His-tagged (natural protein, human, UniProt Q9UBT3 19-224, looked up)
chain: LVLDFNNIRSSADLHGARKGSQCLSDTDCNTRKFCLQPRDEKPFCATCRGLRRRCQRDAMCCPGTLCVNDVCTTMEDATPILERQLDEQDGTHAEGTTGHPVQENQPKRKPSIKKSQGRKGQEGESCLRTFDCGPGLCCARHFWTKICKPVLLEGQVCSRRGHKDTAQAPEIFQRCDCGPGLLCRSQLTSNRQHARLRVCQKIEKL
modifications: uniformly 15N/13C/2H-labelled in the NMR experiments
notes: residues numbered from the N-terminal methionine; also called Dkk4FL
binding [2]: no binding (condition: at pH 7.5; up to 1 μM)
